Laboratory results taken from the supplement of paper PMC7125110.
± gives the standard error. Variants at the floor of the assay are shown more often than the library holds them.

B1: glmS ribozyme (parent)
chain: AUAAAAGCGCCAGAACUACAGAAAUGUAGUUGACGAGGAGGAGGUUUAUCGAAUUUUCGGCGGAUGCCUCCAAA

What was measured:
Conditions in all cases: with glucosamine-6-phosphate
glucosamine-6-phosphate [1] = variants of: B1; test: self-cleavage kobs at 640 uM GlcN6P; higher = faster cleavage; RNA array
In short: (§1)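 Weighted Michaelis–Menten fits across concentrations supplied kcat and KM, based on kobs from one- or two-exponential decay fits to normalised per-tile medians. The data came from barcoded ribozyme variants transcribed in situ by E. coli RNA polymerase on sequenced MiSeq chips and tracked at 37 °C by a hybridised Cy3 probe. Glucosamine-6-phosphate (40 μM to 10 mM) in HEPES/KCl/Mg(OAc)2 buffer was flowed in.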

glucosamine-6-phosphate [2] = variants of: B1; test: self-cleavage kobs at 2500 uM GlcN6P; higher = faster cleavage; RNA array
In short: as §1

glucosamine-6-phosphate [3] = variants of: B1; test: self-cleavage kobs at 160 uM GlcN6P; higher = faster cleavage; RNA array
In short: as §1

glucosamine-6-phosphate [4] = variants of: B1; test: self-cleavage kobs at 10000 uM GlcN6P; higher = faster cleavage; RNA array
In short: as §1

| Variant | self-cleavage kobs at 640 uM GlcN6P (glucosamine-6-phosphate [1]) [s⁻¹] | self-cleavage kobs at 2500 uM GlcN6P (glucosamine-6-phosphate [2]) [s⁻¹] | self-cleavage kobs at 160 uM GlcN6P (glucosamine-6-phosphate [3]) [s⁻¹] | self-cleavage kobs at 10000 uM GlcN6P (glucosamine-6-phosphate [4]) [s⁻¹] |
| --- | --- | --- | --- | --- |
| G32C G51A | < 1e-05 | < 1e-05 |  |  |
| G32C U49A C50G | < 1e-05 | < 1e-05 | < 1e-05 |  |
| G32C U69A | 0.00639 ± 0.0029 |  | < 1e-05 | 2.46e-05 ± 1.2e-05 |
| G32U A36U G62U | < 1e-05 |  |  |  |
| G32U G41A G66C C67A | < 1e-05 | < 1e-05 |  |  |
| G32U G44U C50U G60A | < 1e-05 |  |  |  |
| G32U G63C C67U | < 1e-05 |  | < 1e-05 |  |
| A33C G35A G60A | < 1e-05 | < 1e-05 |  |  |
| A33C G35U C68U | < 1e-05 | < 1e-05 | < 1e-05 |  |
| A33C G41U G43A G44U | < 1e-05 | < 1e-05 | < 1e-05 |  |
| A33G A39G G51U C58U | < 1e-05 |  |  |  |
| A33G C34G | < 1e-05 | < 1e-05 |  | < 1e-05 |
| A33G C34G A36C C68A | < 1e-05 |  |  |  |
| A33G G35A U46C U47A G60C | < 1e-05 |  |  |  |
| A33G G44U G62C | < 1e-05 | < 1e-05 | < 1e-05 |  |
| A33G U56C G60C | < 1e-05 |  |  |  |
| A33U A39U A64G G66C | < 1e-05 |  |  |  |
| A33U A48C G62U | < 1e-05 | < 1e-05 | < 1e-05 |  |
| A33U G38A A39G C67G | < 1e-05 | < 1e-05 | < 1e-05 |  |
| A33U G60C A64U | < 1e-05 |  |  |  |
| A33U G63A | < 1e-05 | < 1e-05 | < 1e-05 |  |
| C34A G38C A53C | < 1e-05 |  |  |  |
| C34G A36G C71U | < 1e-05 |  |  |  |
| C34G A53G C68G | 0.000115 ± 2.5e-05 | 8.44e-05 ± 3.6e-05 | 0.000101 ± 2.4e-05 |  |
| C34G C50G | 0.00014 ± 5.7e-05 | 9.6e-05 ± 3.6e-05 | 5.61e-05 ± 2.4e-05 |  |
| C34U A52U G59U | < 1e-05 |  |  |  |
| C34U C50U A52G U55A | < 1e-05 |  |  |  |
| C34U G38A G44U | < 1e-05 | < 1e-05 | < 1e-05 |  |
| C34U G41A C68U | < 1e-05 |  |  |  |
| C34U G43C U55A | < 1e-05 |  |  |  |
